Data as given in patent US20250270341A1 (Alector, published 2025).

Columns and labels:
[1] = target: T1, Full length human CD98hc on CHO cells (human); test: FACS
T1 construct: CHO cells stably overexpressing it; also called CHO-human CD98hc; CHO-huCD98hc
T1 chain: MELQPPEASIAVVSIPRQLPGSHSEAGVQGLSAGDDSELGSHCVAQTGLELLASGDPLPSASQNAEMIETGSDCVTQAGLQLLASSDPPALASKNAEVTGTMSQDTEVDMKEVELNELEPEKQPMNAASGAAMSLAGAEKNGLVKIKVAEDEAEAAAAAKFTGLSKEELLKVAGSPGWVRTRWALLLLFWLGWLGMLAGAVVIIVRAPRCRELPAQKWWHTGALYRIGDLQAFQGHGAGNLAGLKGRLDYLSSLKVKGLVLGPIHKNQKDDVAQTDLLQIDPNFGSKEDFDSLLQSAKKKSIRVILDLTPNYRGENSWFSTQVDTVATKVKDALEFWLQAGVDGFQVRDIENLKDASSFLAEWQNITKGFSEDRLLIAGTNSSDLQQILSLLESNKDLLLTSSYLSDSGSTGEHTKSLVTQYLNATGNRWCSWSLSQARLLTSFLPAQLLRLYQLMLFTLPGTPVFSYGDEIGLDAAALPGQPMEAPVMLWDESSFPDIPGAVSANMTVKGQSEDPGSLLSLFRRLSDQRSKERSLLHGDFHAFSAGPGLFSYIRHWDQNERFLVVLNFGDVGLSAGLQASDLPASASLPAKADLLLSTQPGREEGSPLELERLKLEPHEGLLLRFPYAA
Procedure: (§1) Purified 2+1 anti-CD98hc bispecific antibodies were screened for binding to human and cyno CD98hc by ELISA as in Example 6. Purified 2+1 bispecific antibodies were screened at concentrations ranging from 1-30 μg/mL. ELISA binding to human and cyno CD98 and control cyno TfR AVI-His tagged proteins as a ratio to secondary antibody alone were calculated, and values are listed in Table 10A. Purified 2+1 bispecific antibodies were also screened for their ability to bind CHO cells overexpressing human or mouse CD98hc or cells endogenously expressing human CD98hc by FACS. […] Data was acquired on a FACS Canto (BD Biosciences). The ratio of binding to endogenously expressing human brain endothelial cells over secondary only is also in Table 12B. 47 out of 94 of the 2+1 anti-CD98hc bispecific antibodies screened were positive by ELISA with signal at least 5-fold higher than the secondary alone, and 16 were ELISA and FACS positive which FACS binding increased 3-fold or more compared to non-expressing cells.

[2] = target: T2, human CD98hc endogenously expressed on HCMEC/D3 cells (human); test: FACS
T2 construct: human brain endothelial cell line
T2 chain: T1 chain
Procedure: as §1

huCD98hc ECD Avi-His = target: T3, huCD98hc ECD Avi-His (human, UniProt P08195 105-529); test: ELISA, 1-30 ug/mL
T3 construct: biotinylated on the Avi tag where captured on streptavidin; also called Human CD98-AVI-His; Human CD98hc-AVI-His
T3 sequence: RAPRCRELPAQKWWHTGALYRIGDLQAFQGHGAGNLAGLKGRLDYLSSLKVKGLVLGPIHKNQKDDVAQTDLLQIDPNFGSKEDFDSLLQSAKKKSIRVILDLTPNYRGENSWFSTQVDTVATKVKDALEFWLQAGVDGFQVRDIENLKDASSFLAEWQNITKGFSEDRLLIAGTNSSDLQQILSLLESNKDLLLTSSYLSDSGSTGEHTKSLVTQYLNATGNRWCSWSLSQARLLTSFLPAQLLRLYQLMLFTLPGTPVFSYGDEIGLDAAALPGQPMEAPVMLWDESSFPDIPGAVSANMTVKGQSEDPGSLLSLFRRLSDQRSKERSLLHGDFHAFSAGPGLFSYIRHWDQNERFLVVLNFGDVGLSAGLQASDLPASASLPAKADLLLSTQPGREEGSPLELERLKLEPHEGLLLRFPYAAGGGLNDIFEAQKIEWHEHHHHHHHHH
Procedure: (§2) Blocking buffer was removed and human, cyno, or mouse Avi-His-tagged CD98hc and Avi-His-tagged human TfR polypeptides were added at 1 μg/ml in ELISA diluent and captured for 1 hour at room temperature. After washing three times with 300 μl of PBST (PBS+0.05% Tween20, Thermo 28352), the hybridoma cell culture supernatants or 1 μg/ml of commercially available purified mouse anti-human CD98hc monoclonal antibody (Sigma Aldrich, Cat #SAB 4700503) and rat anti-mouse CD98hc antibody (Bio-Rad Laboratories, Hercules, CA, Cat #MCA2684) were added (50 μl/well) to each well. After 30 minutes of incubation at room temperature, the plates were washed three times with 300 μl of PBST. […] After a final set of washes (3×300 μl in PBST), 50 μl/well of BioFx TMB substrate (Surmodics, Eden Praire, MN, Cat #TMBW-1000-01) was added to the wells. The reaction was then quenched after 5-10 mins with 50 μl/well of 2N sulfuric acid. The plates were read for absorbance at 450 nm on a SpectraMax M5 (Molecular Devices, Sunnyvale, CA) using SoftMax Pro software.
(§3) Purified 2+1 anti-CD98hc bispecific antibodies were screened for binding to human and cyno CD98hc by ELISA as in Example 6. Purified 2+1 bispecific antibodies were screened at concentrations ranging from 1-30 μg/mL. ELISA binding to human and cyno CD98 and control cyno TfR AVI-His tagged proteins as a ratio to secondary antibody alone were calculated, and values are listed in Table 10A. Purified 2+1 bispecific antibodies were also screened for their ability to bind CHO cells overexpressing human or mouse CD98hc or cells endogenously expressing human CD98hc by FACS. […] Data was acquired on a FACS Canto (BD Biosciences).

Cyno CD98hc ECD Avi-His = target: T4, Cyno CD98hc ECD Avi-His (cynomolgus macaque, UniProt P08195 105-529 (human entry)); test: ELISA, 1-30 ug/mL
T4 construct: biotinylated on the Avi tag where captured on streptavidin; also called Cyno CD98-AVI-His; Cyno CD98hc-AVI-His
T4 chain: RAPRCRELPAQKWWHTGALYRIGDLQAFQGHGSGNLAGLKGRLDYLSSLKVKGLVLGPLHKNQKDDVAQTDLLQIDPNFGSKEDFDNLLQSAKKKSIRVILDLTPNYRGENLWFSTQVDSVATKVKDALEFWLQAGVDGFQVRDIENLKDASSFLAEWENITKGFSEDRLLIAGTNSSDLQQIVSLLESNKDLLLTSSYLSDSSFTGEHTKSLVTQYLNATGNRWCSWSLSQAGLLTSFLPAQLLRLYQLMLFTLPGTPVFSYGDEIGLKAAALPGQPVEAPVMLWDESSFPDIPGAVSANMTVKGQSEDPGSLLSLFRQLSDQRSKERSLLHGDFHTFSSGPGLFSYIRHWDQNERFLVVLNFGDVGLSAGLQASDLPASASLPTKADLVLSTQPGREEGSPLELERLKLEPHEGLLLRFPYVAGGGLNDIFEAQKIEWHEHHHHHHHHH
Procedure: as §2, §3

cyno TfR AVI-His = target: T5, cyno TfR AVI-His (cyno, UniProt H9EXL1 89-760 (rhesus entry)); test: ELISA, 1-30 ug/mL
T5 construct: control protein
Procedure: as §2, §3

cyno TfR AVI-His, sequence (chain, as listed by the source): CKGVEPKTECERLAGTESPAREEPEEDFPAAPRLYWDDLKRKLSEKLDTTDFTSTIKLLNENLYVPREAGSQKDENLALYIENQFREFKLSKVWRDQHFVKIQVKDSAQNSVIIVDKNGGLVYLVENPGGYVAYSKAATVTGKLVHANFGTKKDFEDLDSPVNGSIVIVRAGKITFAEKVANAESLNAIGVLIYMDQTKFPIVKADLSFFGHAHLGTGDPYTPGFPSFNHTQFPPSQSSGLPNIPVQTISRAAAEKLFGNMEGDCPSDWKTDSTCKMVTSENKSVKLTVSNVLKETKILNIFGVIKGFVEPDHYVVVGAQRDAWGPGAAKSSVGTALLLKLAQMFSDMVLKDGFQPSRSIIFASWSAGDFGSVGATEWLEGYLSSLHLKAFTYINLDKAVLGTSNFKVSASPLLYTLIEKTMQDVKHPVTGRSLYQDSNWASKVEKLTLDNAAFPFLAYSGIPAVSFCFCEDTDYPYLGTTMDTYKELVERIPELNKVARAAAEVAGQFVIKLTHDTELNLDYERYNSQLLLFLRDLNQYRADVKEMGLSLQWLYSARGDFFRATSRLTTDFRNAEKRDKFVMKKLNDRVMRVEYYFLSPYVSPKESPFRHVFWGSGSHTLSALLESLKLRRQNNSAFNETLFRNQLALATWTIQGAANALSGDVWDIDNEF

MFI ratio CHO huCD98/CHO parental [1]: 21
MFI ratio HCMEC/2nd ab only [2]: 139
ELISA ratio to 2nd only (huCD98hc ECD Avi-His): 32
ELISA ratio to 2nd only (Cyno CD98hc ECD Avi-His): 19
ELISA ratio to 2nd only (cyno TfR AVI-His): 1
B1: CD98hc.05.059 (2+1 bispecific antibody) (bispecific antibody)
heavy 1: EVRLLESGGGLVQPGGSLRLSCAASGFTFSNYAMGWVRQAPGKGLEWVSAISGSGGSTYYADSVKGRFTTSRDDSKNALYLQMNSLRAEDTAVYYCARGGPGWYAADVWGQGTTVTVSSASTKGPSVFPLAPSSKSTSGGTAALGCLVKDYFPEPVTVSWNSGALTSGVHTFPAVLQSSGLYSLSSVVTVPSSSLGTQTYICNVNHKPSNTKVDKKV[here human IgG1 Fc with changes without letters]GGGGSGGGGSGGGGSEIQLQQSGPELVKPGASVKVSCKASGYSFNMFWVKQSHGKSLEWIGHIDPFNGDTSYSPNFEDRASLTVDRSSNTAYMHLNSLTSEDSAVYYCARSVGAHWYFDVWGAGTTVTVSSGGSEGKSSGSGSESKSTGGSQIVLTQSPAIMSASLGERVTMTCTASSSVTSSYLYWYQQKPGSSPKLWIYSTSNLASGVPPRFSGSGSGTSYSLTISSMEAEDAATYHCQQYHRSPATFGAGTKLEIK
heavy 2: EVRLLESGGGLVQPGGSLRLSCAASGFTFSNYAMGWVRQAPGKGLEWVSAISGSGGSTYYADSVKGRFTTSRDDSKNALYLQMNSLRAEDTAVYYCARGGPGWYAADVWGQGTTVTVSS[here human IgG1 constant region with changes without letters]
light: DIQMTQSPSSLSASVGDRVTITCRASQSISSYLNWYQQKPGKAPKLLIYAASSLQSGVPSRFSGSGSGTDFTLTISSLQPEDFATYYCQQADLPAFAFGGGTKVEIKRTVAAPSVFIFPPSDEQLKSGTASVVCLLNNFYPREAKVQWKVDNALQSGNSQESVTEQDSKDSTYSLSSTLTLSKADYEKHKVYACEVTHQGLSSPVTKSFNRGEC
notes: printed VH looks shortened around CDR-H1

MFI ratio CHO huCD98/CHO parental [1]: 3
MFI ratio HCMEC/2nd ab only [2]: 33
ELISA ratio to 2nd only (huCD98hc ECD Avi-His): 5
ELISA ratio to 2nd only (Cyno CD98hc ECD Avi-His): 1
ELISA ratio to 2nd only (cyno TfR AVI-His): 1
B2: CD98hc.05.208 (2+1 bispecific antibody) (bispecific antibody)
heavy 1: EVRLLESGGGLVQPGGSLRLSCAASGFTFSNYAMGWVRQAPGKGLEWVSAISGSGGSTYYADSVKGRFTTSRDDSKNALYLQMNSLRAEDTAVYYCARGGPGWYAADVWGQGTTVTVSSASTKGPSVFPLAPSSKSTSGGTAALGCLVKDYFPEPVTVSWNSGALTSGVHTFPAVLQSSGLYSLSSVVTVPSSSLGTQTYICNVNHKPSNTKVDKKV[here human IgG1 Fc with changes without letters]GGGGSGGGGSGGGGSQVQLQQSGPELVRPGVSVKISCKSSGYAFTDYAVHWVRQSRAMSLEWIGIISTYSGNIDYNQQFKGKATMTVDKSSSTVYMELARLTSEDSAIYFCARGGRHYYGSYYYAFDYWGQGTSVTVSSGGSEGKSSGSGSESKSTGGSDIVMTQSPSSLAISVGQKVTMSCKSSQSLLNRNNQKNYLAWYQQKPGQSPKLLLYFTSTRESGVPDRFIGSGSGTDFTLIISSVQAEDLADYFCQQHYSTPPTFGGGTKLEIK
heavy 2: EVRLLESGGGLVQPGGSLRLSCAASGFTFSNYAMGWVRQAPGKGLEWVSAISGSGGSTYYADSVKGRFTTSRDDSKNALYLQMNSLRAEDTAVYYCARGGPGWYAADVWGQGTTVTVSS[here human IgG1 constant region with changes without letters]
light: B1 light

One block for each binder: values may come before it.
